Reference: PubChem BioAssay AID1508642 (National Center for Advancing Translational Sciences (NCATS), 2021)
In all, about 43,000 compounds went through this assay and about 200 (0.47%) were called active. Not shown: some 12% with an inconclusive outcome. Calls come from the whole dose curve; as a rule, active = well fitted cell-killing curve with a large enough effect; inconclusive = small, poorly fitted or top-dose-only effect, or effect the other way; inactive = flat fitted curve, though single readings scatter. The list shows a part of the results.

assay: Cell viability qHTS assay in S16 Pmp22-F2sN cells; conditions: S16 Pmp22-F2sN Schwann cells viability, CellTiter-Glo, 24 h; series mostly up to 57.5 µM; activity change, negative = cytotoxicity: at the top concentration; note: nearly all actives have a fitted effect of over 65% in size
Procedure, shortened: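 Viability was measured by CellTiter-Glo luminescence (15 min, room temperature). This followed 24 h at 37 °C of compound exposure (23 nL pin transfer) in S16 Pmp22-F2sN Schwann cells, 500-1,000 per well.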
% is set by controls: 0 for no effect and ±100 for the full control effect.

Row | Compound | activity change, negative = cytotoxicity
1 | CCN(c1ccccc1)S(=O)(=O)c1cc(Br)cc2c1N(C(=O)C1CC1)CC2 | inactive: 4.27%
2 | Cc1ccc(C(=O)N2CCc3cc(CNC(=O)CSc4ccccc4)ccc32)cc1 | inactive: -28%
3 | CCCNC(=O)C1=CC(c2ccc3c(c2)OCO3)=NS(=O)(=O)N1C | inactive: -0.916%
4 | COc1cc(OC)c(OC)cc1CN1CCc2nc(Nc3ccc4c(c3)OCCO4)ncc2C1 | inactive: 2.64%
5 | COc1ccc(CNC(=O)C(=O)Nc2c3c(nn2-c2ccccc2)CSC3)cc1 | inactive: -7.26%
6 | N#Cc1ccc(S(=O)(=O)N2CCC(Oc3cccc(C(F)(F)F)c3)CC2)cc1 | inactive: 11.8%
7 | O=C(NCc1cccs1)c1nn(-c2ccccc2Cl)nc1CO | inactive: 0.723%
8 | COCCCNc1nc2c(S(=O)(=O)c3ccccc3)nnn2c2ccc(Cl)cc12 | inactive: -17.5%
9 | CC1=C(C(=O)Nc2ccccc2)C(c2ccccc2C)n2nc(SCC(=O)c3ccc(C)cc3)nc2N1 (stereo not given) | inactive: -1.53%
10 | Cc1[nH]n(-c2ccccc2)c(=O)c1C(c1cc(Cl)ccc1O)c1c(C)[nH]n(-c2ccccc2)c1=O | inactive: -1.19%
11 | CCN(c1cccc(C)c1)S(=O)(=O)c1ccc(-n2cccn2)cc1 | inactive: 0.518%
12 | CCc1ccc(NC(=O)CCS(=O)(=O)c2cc3c(cc2Cl)NC(=O)CO3)cc1 | inactive: 7.07%
13 | O=C(NCCc1csc(-c2ccc(C(F)(F)F)cc2)n1)c1ccc(F)c(F)c1 | inactive: 4.75%
14 | CCOc1ccc(-c2cc(CCCC(=O)NCCc3ccc(Cl)cc3)no2)cc1 | inactive: 8.1%
15 | COC(=O)c1c(-c2cccs2)csc1NC(=O)c1ccc(Br)cc1 | inactive: 1.48%
16 | COC(=O)c1c(-c2cccs2)csc1NC(=O)c1cccc(Cl)c1 | inactive: -1.32%
17 | Cc1cccc(NC(=O)CSc2nc(-c3cccs3)cc(C(F)(F)F)c2C#N)c1C | inactive: -1.5%
18 | CCn1c(CN2CCOCC2)nc2cc(NC(=O)c3ccccc3[N+](=O)[O-])ccc21 | inactive: 2.85%
19 | CC(C)Oc1ccc(CNC(=O)c2ccc(CS(=O)c3cccc(Cl)c3)o2)cc1 (stereo not given) | inactive: -28.9%
20 | COc1ccccc1N1CCN(C(=O)Cn2ncc3ccsc3c2=O)CC1 | inactive: 1.71%

Row | Compound | activity change, negative = cytotoxicity
21 | COc1cccc(-n2cc(C(=O)Nc3cccc(C(F)(F)F)c3)c3ccccc3c2=O)c1 | inactive: 3.44%
22 | Cc1ccc(NC(=O)N2CCc3cc(S(=O)(=O)N4CCC(C)CC4)ccc32)cc1 | inactive: 3.73%
23 | CCN(C(=O)Cn1c(=O)n(CCCS(=O)(=O)C2CCCCC2)c(=O)c2ccccc21)c1cccc(C)c1 | inactive: -5.54%
24 | CN(C)C1(CNC(=O)COc2ccc([N+](=O)[O-])cc2)CCCCC1 | inactive: -5.11%
25 | CCC1CN(C(=O)N2CCC(C(=O)NCCc3cc(OC)ccc3OC)CC2)c2ccccc2O1 (stereo not given) | inactive: -0.879%
26 | Cc1ccc(Cl)cc1Nc1nn2c(=O)c3ccc(C(=O)Nc4ccc(F)cc4)cc3nc2s1 | inactive: 2.09%
27 | Cc1cc(Cl)ccc1NC(=O)Cn1nc(C)c2c(C)n(-c3ccccc3)nc2c1=O | inactive: -2.32%
28 | CC1CCN(C(=O)Cn2c(=O)n(CCCCCC(=O)NCc3ccccc3Cl)c(=O)c3sccc32)CC1 | inactive: -7.89%
29 | CC(=O)Nc1cc(-c2nc3cc(Cl)ccc3o2)ccc1C | inactive: 4.78%
30 | COc1ccccc1CNC(=O)CCC1N=C2c3ccccc3N=C(SCC(=O)Nc3ccc(F)cc3)N2C1=O (stereo not given) | inactive: -13.1%
31 | Cc1ccc2c(c1)c1c(c(=O)n(-c3cccc(Cl)c3)c(=O)n1CC(=O)NCCC1=CCCCC1)n2C | inactive: 12.3%
32 | COc1ccc(CNc2nc(-c3ccccc3)nn2S(=O)(=O)c2ccccc2)cc1 | inactive: 9.11%
33 | COc1cccc(C2c3c(oc4cc(C)cc(C)c4c3=O)C(=O)N2CCc2ccc(OC)c(OC)c2)c1 (stereo not given) | inactive: 1.08%
34 | CCOC(=O)C1CCC(CN(Cc2ccc(OC)cc2)S(=O)(=O)c2ccc(F)c(C(=O)Nc3ccc(C)c(C)c3)c2)CC1 (stereo not given) | inactive: -3.29%
35 | CCc1ccc(NS(=O)(=O)c2ccc3oc(=O)c4ncn(CC)c4c3c2)cc1 | inactive: -16.2%
36 | COc1ccc(-n2c(Cc3ccccc3)nnc2SCc2nc(-c3cccs3)no2)cc1 | inactive: -13.1%
37 | O=c1cc(CSc2ncn[nH]2)[nH]c2ccc(F)cc12 | inactive: 0.415%
38 | O=C(Nc1nnc(-c2cc(Cl)ccc2Cl)o1)c1ccc2c(c1)OCCO2 | inactive: 5.6%
39 | Cc1cc(=O)n(Cc2c(F)cccc2Cl)c2c1c(C)nn2-c1cccc(F)c1 | inactive: -18.4%
40 | O=C(Cc1ccc(Cl)cc1)NCC(c1cccs1)S(=O)(=O)c1ccccc1 (stereo not given) | inactive: -5.77%

Row | Compound | activity change, negative = cytotoxicity
41 | CCCSc1ncc(Cl)c(C(=O)Nc2sc(C(C)=O)c(C)c2C(=O)OCC)n1 | inactive: 21.1%
42 | Cc1ccc(S(=O)(=O)N(CC(=O)Nc2ccc(F)cc2F)Cc2ccc(F)cc2)cc1 | inactive: 2.02%
43 | CCn1ccc2c(OCC(=O)Nc3ccc(C)c(Cl)c3)cccc2c1=O | inactive: -24.7%
44 | COc1cccc(N2CCN(C(=O)CCSCc3ccccc3F)CC2)c1 | inactive: 6.53%
45 | Cc1cccc(C(=O)Nc2c(C(=O)N3CCN(c4ccc(F)cc4)CC3)oc3ccccc23)c1 | inactive: 3.59%
46 | CCOC(=O)C1CCN(S(=O)(=O)c2cc3c4c(c2)C(C)C(=O)N4CCC3)CC1 (stereo not given) | inactive: 8.81%
47 | Cc1c(CNC(C)CCc2ccccc2)c(C(=O)O)c(C)n1Cc1ccc(F)cc1 (stereo not given) | inactive: -0.403%
48 | Cc1onc(-c2ccccc2Cl)c1C(=O)Oc1ccccc1F | inactive: 4.83%
49 | CC(C)(C)OC(=O)N1CCC(N2CCN(Cc3ccccc3)C(=O)C2=O)CC1 | inactive: 19.4%
50 | CCOC(=O)c1ccccc1NC(=O)NCc1c(-n2cccc2)sc2c1CCCC2 | inactive: 2.74%
51 | CCOc1ccc(NC(=O)C(CC(C)C)N2Cc3ccccc3C2=O)cc1 (stereo not given) | inactive: -3.77%
52 | CC(=O)Nc1ccc(NC(=O)c2cc(CN3CCCC3)on2)cc1 | inactive: 6.38%
53 | COc1ccccc1C(=O)Nc1cccc(C(=O)OCc2cc(=O)n3c4c(sc3n2)CCCC4)c1 | inactive: -4.13%
54 | COc1ccc(NC(=O)CSc2oc(-c3ccco3)nc2S(=O)(=O)c2ccc(C)cc2)c(OC)c1 | inactive: -7.17%
55 | CCOc1ccc(NC(=O)Cn2c(=O)n(CC3CCC(C(=O)NCCc4ccccc4)CC3)c(=O)c3ccccc32)cc1 (stereo not given) | inactive: -0.696%
56 | COCCCNC(=O)c1nn(C)c2c1CS(=O)(=O)c1ccccc1-2 | inactive: -8.85%
57 | CCc1cccc(NC(=O)Cc2nc(-c3ccc(OC)cc3)no2)c1 | inactive: 6.32%
58 | Cc1csc2nc(COC(=O)c3cccc(NC(=O)COc4ccccc4Cl)c3)cc(=O)n12 | inactive: 22.7%
59 | COCc1cc(C)nc2sc3c(c12)NC(c1ccccc1C(=O)O)N(c1cccc(C(F)(F)F)c1)C3=O (stereo not given) | inactive: 0.584%
60 | COc1cc([N+](=O)[O-])ccc1NC(=O)c1nc2ccccc2n(C)c1=O | inactive: 7.87%
